Data reported in the supplement of paper PMC12217912.
The other results are listed elsewhere or left out. Sequences were assembled here from the parent chain. Values near 0.05 are background.

B1: TEV protease; numbered along this chain (parent)
chain: MGESLFKGPRDYNPISSSICHLTNESDGHTTSLYGIGFGPFIITNKHLFRRNNGTLVVQSLHGVFKVKDTTTLQQHLVDGRDMIIIRMPKDFPPFPQKLKFREPQREERICLVTTNFQTKSMSSMVSDTSCTFPSGDGIFWKHWIQTKDGQCGSPLVSTRDGFIVGIHSASNFTNTNNYFTSVPKNFMELLTNQEAQQWVSGWRLNADSVLWGGHKVFMVKPEEPFQPVKEATQL

Variants of: B1
Assay: raw area under fraction-flipped curve 0-4 h after induction (AUC4h, not background-subtracted), DNA-recorder readout of cleavage of the substrate (dimensionless); higher = more cleavage of the substrate by the protease variant
Details: temperature: 34 °C; time window: 0-4 h after rhamnose induction
Method: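 In vivo DNA recorder in E. coli TOP10(DE3) ΔrhaA at 34 °C. Each TEVp single-site mutant (parent TEVp 0) is paired with a single-site variant of the 7-mer TEVs (canonical ENLYFQ|S). The substrate sits between flexible linkers in a Bxb1-sfGFP-TEVs-SsrA fusion, so cleavage stabilises Bxb1 and speeds flipping of a recombination array, read by NGS. The value is the raw area under the fraction-flipped curve over 0-4 h after rhamnose induction (AUC4h), with ≥20 reads per time point. It is not background-subtracted; inactive controls average about 0.047.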
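Note: Bxb1 expression induced with 0.2% (w/v) L-rhamnose at OD600 near 0.5, cultures sampled hourly, flipped fraction per protease–substrate barcode pair counted by paired-end Illumina sequencing.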

Variant | area with substrate ANLYFQS | area with substrate CNLYFQS | area with substrate FNLYFQS | area with substrate GNLYFQS | area with substrate HNLYFQS | area with substrate INLYFQS | area with substrate KNLYFQS | area with substrate MNLYFQS | area with substrate SNLYFQS | area with substrate TNLYFQS | area with substrate VNLYFQS | area with substrate WNLYFQS | area with substrate LNLYFQS | area with substrate NNLYFQS | area with substrate PNLYFQS | area with substrate QNLYFQS | area with substrate YNLYFQS | area with substrate RNLYFQS | area with substrate DNLYFQS
K7Q | 0.0642 | 0.0645 | 0.0618 | 0.0832 | 0.0715 | 0.0528 | 0.0517 | 0.0672 | 0.0674 | 0.069 | 0.0745 | 0.0595 |  |  |  |  |  |  | 
S26A | 0.0461 | 0.058 | 0.0571 | 0.0639 | 0.0578 | 0.0682 | 0.0385 |  | 0.0505 | 0.0578 |  | 0.0408 | 0.0675 | 0.0601 | 0.0454 | 0.0772 | 0.0612 |  | 
S26T | 0.0237 | 0.0698 | 0.0635 |  |  | 0.0597 | 0.0569 |  | 0.0596 | 0.0728 | 0.0666 | 0.0606 | 0.0613 |  | 0.0633 | 0.0639 |  | 0.0663 | 
S26G | 0.0744 | 0.0601 |  |  | 0.062 | 0.0707 |  |  | 0.0629 |  |  | 0.0704 |  | 0.059 | 0.0579 |  |  |  | 
L22R | 0.0432 | 0.0406 | 0.0514 | 0.0461 | 0.0435 |  |  | 0.0518 | 0.0477 | 0.0532 |  |  | 0.0428 | 0.0446 | 0.036 |  |  |  | 
L22T | 0.0638 |  |  | 0.0649 | 0.0432 | 0.0502 |  | 0.0444 | 0.0375 | 0.0455 | 0.0364 | 0.0567 | 0.0497 | 0.0422 | 0.0174 |  |  |  | 0.0376
D27T | 0.0535 |  | 0.0447 |  | 0.058 | 0.0316 | 0.0752 |  | 0.0502 |  | 0.0575 |  | 0.0637 | 0.0667 | 0.0595 | 0.066 | 0.0599 | 0.056 | 0.0672
R10N | 0.0586 | 0.0574 |  |  | 0.062 | 0.068 | 0.0748 | 0.0743 |  | 0.0635 |  | 0.0648 |  | 0.0735 | 0.0675 |  | 0.0643 |  | 0.0773
G2E | 0.0532 | 0.0645 | 0.0559 |  | 0.047 | 0.0754 | 0.0673 | 0.109 | 0.0707 | 0.0621 | 0.0815 | 0.0734 |  | 0.0648 | 0.0662 |  |  |  | 
P14S | 0.0602 | 0.0766 | 0.049 | 0.065 | 0.0608 | 0.0574 | 0.0629 | 0.066 | 0.0594 | 0.0653 | 0.0639 | 0.0621 | 0.0628 | 0.0781 | 0.0663 |  | 0.0565 |  | 
P14R | 0.0753 | 0.0642 |  | 0.0179 | 0.0664 | 0.0626 | 0.078 | 0.0038 | 0.0733 | 0.0693 |  | 0.0539 | 0.074 |  |  | 0.0707 |  |  | 
I19L | 0.0695 | 0.0634 | 0.061 | 0.0528 | 0.0603 | 0.0516 | 0.0764 |  | 0.0685 | 0.0698 | 0.0673 | 0.0618 |  | 0.0595 | 0.0789 |  | 0.0624 | 0.0634 | 
I19F | 0.0499 | 0.0665 | 0.0455 | 0.0709 | 0.0634 |  | 0.0483 | 0.0584 | 0.0503 | 0.049 | 0.0615 | 0.058 | 0.0551 | 0.0531 | 0.0656 |  | 0 | 0.109 | 
I19E | 0.0485 | 0.045 | 0.052 | 0.0438 | 0.0493 | 0.0549 | 0.0347 | 0.0436 | 0.0451 | 0.0507 | 0.0428 | 0.0363 | 0.0389 | 0.052 | 0.0377 | 0.0629 | 0.0332 |  | 0.0532
I19C | 0.0755 |  |  | 0.06 | 0.0574 | 0.0612 | 0.0671 |  |  | 0.0846 | 0.0827 |  | 0.0679 | 0.0605 | 0.105 |  | 0.0619 |  | 0.0759
N13D | 0.0607 |  | 0.053 | 0.0619 | 0.0613 | 0.0697 | 0.0663 |  | 0.0722 | 0.0694 | 0.0621 | 0.0611 | 0.0678 | 0.0608 | 0.0689 |  | 0.0604 | 0.0437 | 0.0895
N13A | 0.0654 | 0.0735 | 0.0632 | 0.0669 | 0.0537 |  | 0.0654 | 0.0602 | 0.0541 | 0.0717 | 0.0705 | 0.062 | 0.0752 | 0.0738 | 0.0707 | 0.0676 | 0.0775 |  | 
Y12D | 0.0212 | 0.0521 | 0.0551 |  | 0.0659 |  | 0.071 | 0.07 | 0.0731 | 0.0669 | 0.0639 | 0.0542 | 0.0639 | 0.0621 | 0.0633 | 0.0677 | 0.0478 |  | 
Y12E | 0.0664 | 0.0721 | 0.0733 | 0.0647 | 0.0698 | 0.0373 | 0.0791 | 0.0666 | 0.0752 | 0.0679 | 0.078 | 0.0586 | 0.0605 |  | 0.0634 | 0.0712 |  |  | 
C20D | 0.0451 | 0.0345 | 0.0663 | 0.0405 | 0.0394 | 0.0412 | 0.048 | 0.0475 | 0.0586 | 0.0534 |  | 0.0337 | 0.0482 | 0.0442 | 0.0538 | 0.0553 | 0.0369 | 0.0275 | 
C20H | 0.0428 | 0.0469 | 0.0347 | 0.033 | 0.0523 | 0.0422 |  |  | 0.0515 | 0.052 |  | 0.0466 |  | 0.0409 | 0.0553 | 0.0279 | 0.0599 |  | 
C20G | 0.0421 | 0.0385 |  |  |  |  |  |  | 0.0532 |  |  |  |  |  |  |  |  |  | 
C20S | 0.0559 | 0.064 | 0.0276 | 0.0533 | 0.0654 |  | 0.039 |  | 0.0469 | 0.0658 |  | 0.0511 | 0.0477 | 0.0346 | 0.049 | 0.0534 |  |  | 
C20V | 0.0631 |  |  |  | 0.0633 | 0.0802 | 0.0818 |  | 0.0743 | 0.0779 |  | 0.0597 | 0.0597 | 0.0751 |  |  | 0.0627 | 0.0669 | 0.0866
C20T | 0.0576 |  | 0.0591 | 0.0535 | 0.0582 | 0.0523 | 0.0608 | 0.0642 | 0.0555 | 0.0617 |  | 0.0699 | 0.0666 | 0.0731 | 0.0624 | 0.0753 | 0.0598 | 0.0406 | 0.0894
E3S | 0.075 | 0.0736 |  | 0.0721 | 0.0805 | 0.0677 | 0.0744 |  | 0.0748 | 0.068 |  | 0.0572 | 0.0596 | 0.0731 |  |  | 0.0557 |  | 
